This is one part of the list.
What was measured:
Test in all cases: glycan array binding signal (z-score within array); higher = stronger binding
Settings in all cases: glycan notation: IUPAC condensed, linker removed
[1] = molecular target: Neu5Ac(a2-6)GlcNAc(b1-4)GlcNAc(b1-4)GlcNAc
How it was run: (§1)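 Glycan array binding is given as a within-array Z-score, which can be read as non-binding when negative. The arrays, 3228 of them, came from the Consortium for Functional Glycomics database and were retained only where the protein sequence was available. Z-scores were averaged across arrays of the same protein sequence at different concentrations or buffers and across linkers.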

Neu5Ac(a2-8)Neu5Ac = molecular target: Neu5Ac(a2-8)Neu5Ac
How it was run: as §1

[2] = molecular target: Neu5Ac(a2-8)Neu5Ac(a2-3)Gal(b1-3)GalNAc(b1-4)[Neu5Ac(a2-3)]Gal(b1-4)Glc
How it was run: as §1

[3] = molecular target: Neu5Ac(a2-8)Neu5Ac(a2-3)Gal(b1-3)GalNAc(b1-4)[Neu5Ac(a2-8)Neu5Ac(a2-3)]Gal(b1-4)Glc
How it was run: as §1

[4] = molecular target: Neu5Ac(a2-8)Neu5Ac(a2-3)Gal(b1-4)Glc
How it was run: as §1

[5] = molecular target: Neu5Ac(a2-8)Neu5Ac(a2-3)Gal(b1-4)GlcNAc
How it was run: as §1

[6] = molecular target: Neu5Ac(a2-8)Neu5Ac(a2-3)[Gal(b1-3)GalNAc(b1-4)]Gal(b1-4)Glc
How it was run: as §1

[7] = molecular target: Neu5Ac(a2-8)Neu5Ac(a2-3)[GalNAc(b1-4)]Gal(b1-4)Glc
How it was run: as §1

[8] = molecular target: Neu5Ac(a2-8)Neu5Ac(a2-8)Neu5Ac
How it was run: as §1

[9] = molecular target: Neu5Ac(a2-8)Neu5Ac(a2-8)Neu5Ac(a2-3)Gal(b1-4)Glc
How it was run: as §1

[10] = molecular target: Neu5Ac(a2-8)Neu5Ac(a2-8)Neu5Ac(a2-3)[Gal(b1-3)GalNAc(b1-4)]Gal(b1-4)Glc
How it was run: as §1

[11] = molecular target: Neu5Ac(a2-8)Neu5Ac(a2-8)Neu5Ac(a2-3)[GalNAc(b1-4)]Gal(b1-4)Glc
How it was run: as §1

[12] = molecular target: Neu5Ac(a2-8)Neu5Ac(a2-8)Neu5Ac(a2-8)Neu5Ac(a2-3)[GalNAc(b1-4)]Gal(b1-4)Glc
How it was run: as §1

[13] = molecular target: Neu5Ac(a2-8)Neu5Gc(a2-3)Gal(b1-4)GlcNAc
How it was run: as §1

[14] = molecular target: Neu5Ac(b2-6)Gal(b1-4)GlcNAc
How it was run: as §1

Neu5Ac(b2-6)GalNAc = molecular target: Neu5Ac(b2-6)GalNAc
How it was run: as §1

[15] = molecular target: Neu5Ac9Ac(a2-3)Gal(b1-4)GlcNAc
How it was run: as §1

[16] = molecular target: Neu5Ac9Ac(a2-6)Gal(b1-4)GlcNAc
How it was run: as §1

[17] = molecular target: Neu5Gc(a2-3)Gal(b1-3)GlcNAc
How it was run: as §1

[18] = molecular target: Neu5Gc(a2-3)Gal(b1-3)[Fuc(a1-4)]GlcNAc
How it was run: as §1

Neu5Gc(a2-3)Gal(b1-4)Glc = molecular target: Neu5Gc(a2-3)Gal(b1-4)Glc
How it was run: as §1

[19] = molecular target: Neu5Gc(a2-3)Gal(b1-4)GlcNAc
How it was run: as §1

[20] = molecular target: Neu5Gc(a2-3)Gal(b1-4)GlcNAc(b1-3)Gal(b1-4)GlcNAc(b1-2)Man(a1-3)[Neu5Gc(a2-3)Gal(b1-4)GlcNAc(b1-3)Gal(b1-4)GlcNAc(b1-2)Man(a1-6)]Man(b1-4)GlcNAc(b1-4)GlcNAc
How it was run: as §1

[21] = molecular target: Neu5Gc(a2-3)Gal(b1-4)[Fuc(a1-3)]GlcNAc
How it was run: as §1

[22] = molecular target: Neu5Gc(a2-6)Gal(b1-4)GlcNAc
How it was run: as §1

Neu5Gc(a2-6)GalNAc = molecular target: Neu5Gc(a2-6)GalNAc
How it was run: as §1

[23] = molecular target: Neu5Gc(a2-8)Neu5Ac(a2-3)Gal(b1-4)GlcNAc
How it was run: as §1

[24] = molecular target: Neu5Gc(a2-8)Neu5Gc(a2-3)Gal(b1-4)GlcNAc
How it was run: as §1

[25] = molecular target: Neu5Gc(a2-8)Neu5Gc(a2-3)Gal(b1-4)GlcNAc(b1-3)Gal(b1-4)GlcNAc
How it was run: as §1

[26] = molecular target: Neu5Gc(a2-8)Neu5Gc(a2-6)Gal(b1-4)GlcNAc
How it was run: as §1

[27] = molecular target: Neu5Gc(b2-6)Gal(b1-4)GlcNAc
How it was run: as §1

B1: Microvirin-2 (Microcystis aeruginosa) (protein)
chain: MPNFSHTCSSINYDPDSTILSAECQARDGEWLPTELRLSDHIGNIDGELQFGDQNFQETCQDCHLEFGDGEQSVWLVCTCQTMDGEWKSTQILLDSQIDNNDSQLEIGGSMPNFSHTCSSINYDPDSTILSAECQARDGEWLPTELRLSDHIGNIDGELQFGDQNFQETCQDCHLEFGDGEQSVWLVCTCQTMDGEWKSTQILLDSQIDNNDSQLEIG
[1]
  glycan array binding signal (z-score): -0.139
Neu5Ac(a2-8)Neu5Ac
  glycan array binding signal (z-score): -0.134
[2]
  glycan array binding signal (z-score): -0.143
[3]
  glycan array binding signal (z-score): -0.131
[4]
  glycan array binding signal (z-score): -0.14
[5]
  glycan array binding signal (z-score): -0.139
[6]
  glycan array binding signal (z-score): -0.138
[7]
  glycan array binding signal (z-score): -0.137
[8]
  glycan array binding signal (z-score): -0.137
[9]
  glycan array binding signal (z-score): -0.139
[10]
  glycan array binding signal (z-score): -0.132
[11]
  glycan array binding signal (z-score): -0.141
[12]
  glycan array binding signal (z-score): -0.13
[13]
  glycan array binding signal (z-score): -0.141
[14]
  glycan array binding signal (z-score): -0.141
Neu5Ac(b2-6)GalNAc
  glycan array binding signal (z-score): -0.138
[15]
  glycan array binding signal (z-score): -0.119
[16]
  glycan array binding signal (z-score): -0.146
[17]
  glycan array binding signal (z-score): -0.115
[18]
  glycan array binding signal (z-score): -0.137
Neu5Gc(a2-3)Gal(b1-4)Glc
  glycan array binding signal (z-score): -0.12
[19]
  glycan array binding signal (z-score): -0.123
[20]
  glycan array binding signal (z-score): -0.12
[21]
  glycan array binding signal (z-score): -0.125
[22]
  glycan array binding signal (z-score): -0.127
Neu5Gc(a2-6)GalNAc
  glycan array binding signal (z-score): -0.133
[23]
  glycan array binding signal (z-score): -0.139
[24]
  glycan array binding signal (z-score): -0.148
[25]
  glycan array binding signal (z-score): -0.133
[26]
  glycan array binding signal (z-score): -0.139
[27]
  glycan array binding signal (z-score): -0.119

Reference: the supplement of paper PMC8728848
